Measurements from publication PMC6919601, “Identification of Plasmodium dipeptidyl aminopeptidase allosteric inhibitors by high throughput screening” (PLoS ONE, 2019).
The campaign covered roughly 110,000 compounds. About 230 (0.21%) showed an effect of 50% or more. The list shows a part of the results.

These molecules were tested against DPAP1 (Plasmodium falciparum, UniProt Q8IIJ9) (assay: primary screen, percent inhibition; read by cleavage of a fluorogenic dipeptide substrate; higher = more effect of the substance).
Parameters: species or system P. falciparum D10 trophozoite lysates; single well
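Further: 30 min substrate incubation versus DMSO and 10 µM JCP410 controls.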

DPAP1, sequence (Q8IIJ9 whole entry, looked up): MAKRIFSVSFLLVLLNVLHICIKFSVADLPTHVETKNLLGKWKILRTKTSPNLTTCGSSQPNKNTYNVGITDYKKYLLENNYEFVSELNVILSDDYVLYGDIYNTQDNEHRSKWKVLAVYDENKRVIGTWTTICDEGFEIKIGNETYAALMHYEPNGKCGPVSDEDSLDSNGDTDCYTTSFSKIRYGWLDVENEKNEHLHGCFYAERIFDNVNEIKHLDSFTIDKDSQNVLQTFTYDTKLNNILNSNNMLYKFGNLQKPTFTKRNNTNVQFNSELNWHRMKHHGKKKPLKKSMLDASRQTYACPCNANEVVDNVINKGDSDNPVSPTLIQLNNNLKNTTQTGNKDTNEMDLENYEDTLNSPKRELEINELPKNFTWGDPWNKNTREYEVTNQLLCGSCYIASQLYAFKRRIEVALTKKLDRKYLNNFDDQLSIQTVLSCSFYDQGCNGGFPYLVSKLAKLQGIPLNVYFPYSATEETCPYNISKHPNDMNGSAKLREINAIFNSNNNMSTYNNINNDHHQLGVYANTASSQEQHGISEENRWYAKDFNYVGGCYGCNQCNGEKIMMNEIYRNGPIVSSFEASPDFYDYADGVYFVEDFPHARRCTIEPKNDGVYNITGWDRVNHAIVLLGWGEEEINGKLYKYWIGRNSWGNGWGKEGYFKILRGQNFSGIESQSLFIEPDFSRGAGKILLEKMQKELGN

| SMILES | % Inhibition @ 10 uM [%] |
| --- | --- |
| COc1cccc2c1OC1c3ccccc3OC2C1C (centres unmarked) | -3.94 |
| CCN(C(=O)C1CCCCC1C(=O)O)c1ccccc1 (centres unmarked) | -4.35 |
| CCc1nc2cccnc2n1-c1ccc(CC(=O)N2CCOCC2)cc1 | -2.74 |
| CC(C)C[C@H](NC(=O)c1ccc(N2CCCCC2)nc1)C(=O)NCC#N | 2.22 |
| CCOC(=O)C1=C(C)N=C2SCCN2C1c1ccc(Br)cc1 (centres unmarked) | -1.15 |
| CCCCN1CCc2c1nc1ccc(Br)cc1c2N | 1.7 |
| CCNC(=O)C1CCN(c2nnc(N3CCCC3=O)s2)CC1 | -2.85 |
| CCOc1ccc(-c2cc(NC(=O)COCc3cc(-c4cccs4)on3)on2)cc1OCC | -4.96 |
| COc1ccc(NS(=O)(=O)c2cccc(C(=O)Nc3cccc(C(=O)O)c3)c2)cc1 | 10.6 |
| CN(C)c1ccc(C2C(C#N)=C(N)OC3=C2C(=O)CC(c2ccccc2)C3)cc1 (centres unmarked) | 1.57 |
| Cc1ccc(S(=O)(=O)N2CCC(C(=O)Nc3cccc(Cl)c3C)CC2)cc1 | 0.583 |
| O=C1c2ccccc2C2(O)NC(=S)NC12O (centres unmarked) | -3.64 |
| CC(C)NCC(O)Cn1c2ccc(Cl)cc2c2cc(Cl)ccc21 (centres unmarked) | -1.59 |
| Cc1cc2c(c(=O)n1CCc1ccccc1)C(c1cccnc1)C(C#N)=C(N)O2 (centres unmarked) | 0.627 |
| CCOc1ccc(/C=C2/SC(Nc3ccccc3)=NC2=O)c(OCC)c1 | -4.82 |
| CCCOc1ccc(C(=O)Nc2cc(-c3ccc(C)cc3)no2)cc1 | -1.47 |
| COc1ccc(C2C3C(=O)N(c4ccc(OC)cc4)C(=O)C3ON2c2ccccc2)cc1 (centres unmarked) | -4.6 |
| O=C(O)/C=C/C(=O)N1CCN(c2nc(-c3ccccc3)c3ccccc3n2)CC1 | -2.92 |
| O=C(CN1C(=O)c2cccc3cccc(c23)C1=O)N1CCN(c2ccc(F)cc2)CC1 | -3.18 |
| Cc1cc(C)nc(NS(=O)(=O)c2ccc(NC(=O)c3ccc(S(=O)(=O)N(C)C)cc3)cc2)n1 | -7.7 |
| COc1ccccc1C(=O)NCCCc1nc2ccccc2n1Cc1ccccc1F | -2.83 |

| SMILES | % Inhibition @ 10 uM [%] |
| --- | --- |
| CCOc1cccc(O)c2c(C)nc(C)c1-2 | -2.48 |
| CCOc1ccccc1C(=O)N(C)c1ccccc1 | -1.99 |
| CCc1c(C#N)c(S)nc(C)c1C(=O)Nc1ccccc1 | 55 |
| Cc1ccc(NC(=O)CN2C(=O)S/C(=C\c3ccccn3)C2=O)cc1 | -2.27 |
| CC(C(=O)NCc1ccccn1)n1cccc1C(=O)c1ccccc1 (centres unmarked) | -0.522 |
| O=C1NN(C(=O)COc2ccc(Br)cc2)C(c2ccc(Br)cc2)=CS1 | -1.47 |
| COc1nc(Nc2ccccc2O)nc(OC)n1 | 2.58 |
| O=C(NC(=S)NCc1ccccc1)c1ccc([N+](=O)[O-])cc1 | -0.0369 |
| CC(C)(C)C1CCc2c(sc3nnn(CC(=O)N4CCCCCC4)c(=O)c23)C1 (centres unmarked) | -2.71 |
| O=C(c1ccc(Br)cc1)N(Cc1ccccc1)Cc1ccccc1 | -3.13 |
| O=C1C2C3c4ccccc4C(c4ccccc43)C2C(=O)N1c1cc(Cl)ccn1 (centres unmarked) | 5.39 |
| COc1ccccc1N1CCN(Cc2cc(OC)c(O)c(OC)c2)CC1 | -1.86 |
| COc1cccc2cc(-c3csnn3)c(=O)oc12 | 0.351 |
| CCOC(=O)c1cc2c(=O)n3ccccc3nc2n(CC2CCCO2)/c1=N/C(=O)c1ccccc1 (centres unmarked) | -2.9 |
| O=C1NC(=O)N(c2cccc(Cl)c2)C(=O)/C1=C\Nc1ccc(Br)cn1 | 0.673 |
| O=C(Nc1cccnc1)C1CC(c2ccc(F)cc2)=NO1 (centres unmarked) | 1.62 |
| O=C(O)c1ccccc1-c1ccccc1C(=O)N1CCN(Cc2ccc3c(c2)OCO3)CC1 | -1.72 |
| COc1ccc(N2C(=O)CC(N3CCN(C4CCc5ccccc5C4)CC3)C2=O)cc1 (centres unmarked) | -2.22 |
| CO/C(O)=C1/C(C)=NC2=C(C(=O)CCC2)C1c1ccc(N(C)C)cc1 (centres unmarked) | -5.44 |
| COc1ccc(-c2cc(C3CC3)nc3sc(C(N)=O)c(N)c23)cc1 | 3.01 |
| c1csc(CNc2c3c(nc4nncn24)CCC3)c1 | 2.54 |

| SMILES | % Inhibition @ 10 uM [%] |
| --- | --- |
| CC(Nc1cccc(Cl)c1)N1C(=O)CCC1=O (centres unmarked) | 2.23 |
| O=C(CCN1C(=O)c2cccc3cccc(c23)C1=O)Nc1nc(-c2ccccc2)cs1 | 2.38 |
| O=C(O)C1C2CCC(O2)C1C(=O)Nc1ccc2c(c1)CCC2 (centres unmarked) | -4.6 |
| Cc1nn(-c2cccc3ccccc23)c(O)c1/C=N/c1ccc2[nH]c(O)nc2c1 | -0.759 |
| Cc1ccc(C)c(S(=O)(=O)NCc2ccc(C(=O)N3CCN(c4ccccc4)CC3)cc2)c1 | 9.29 |
| COc1ccc(C(c2c(O)n[nH]c2C)c2c(O)n[nH]c2C)cc1Br | -0.822 |
| Cc1cc(C)c(C(=O)c2ccc(C(=O)NC3CCCCC3)cc2)c(C)c1 | -6.78 |
| Cc1ccccc1NC(=O)c1cccc(NC(=O)c2ccccc2C(=O)O)c1 | -5.41 |
| Cc1cc(C)c(OCC(O)CNC(C)(C)C)c(C)c1 (centres unmarked) | 7.34 |
| C=CCN1C(=O)/C(=C/c2ccc(OC)c(OC)c2)C(=O)NC1=S | -4.87 |
| COc1ccc(C2C3=C(O)CC(C)(C)CC3=NC(C)=C2C(=O)Nc2ccc(Br)cn2)cc1 (centres unmarked) | 1.08 |
| C=CCOc1ccccc1CN1CCN(c2ccc(OC)cc2)CC1 | 0.0792 |
| COc1ccc(-c2noc(CNC(=O)c3ccc4c(c3)OCO4)n2)cc1 | -6.72 |
| CNC(=O)N1C(=O)C(=O)c2ccccc21 | -2.63 |
| Cc1cccc2sc(NC(=O)CCS(=O)(=O)c3ccc(Br)s3)nc12 | 3.27 |
| CCCCN(C)C(=O)CCCn1nc(C)n2c(cc3sccc32)c1=O | 4.95 |
| CCOc1ccc(C(=O)Nc2ccccn2)cc1 | -7.3 |
| N#CCNC(=O)[C@H](Cc1cc(I)c(O)c(I)c1)NC(=O)c1ccc(C(F)(F)F)cc1 | -3.04 |
| CCc1nnc(NC(=O)C2c3ccccc3C(=O)N(C)C2c2cccs2)s1 (centres unmarked) | -6.69 |
| COc1ccc(CCNC(=O)CSc2nc(NCC3CCCO3)c3ccccc3n2)cc1OC (centres unmarked) | -1.5 |
